Residue numbers refer to the chain shown, from its start.
B1: GLP1-hFc (Fc fusion)
chain: HAEGTFTSDVSSYLEGQAAKEFIAWLVKGRGGGGGSGGGGSGGGGS[sequence of human IgG1 Fc not given]
B2: A-GLP1-hFc (Fc fusion)
chain: AHAEGTFTSDVSSYLEGQAAKEFIAWLVKGRGGGGGSGGGGSGGGGS[sequence of human IgG1 Fc not given]
B3: Q-GLP1-hFc (Fc fusion)
chain: B2 chain with A1Q
B4: Comparator: GLP1 analogue having the amino acid sequence characteristics of LY2189265 fused to hIgG4 Fc domain (Fc fusion)
chain: HGEGTFTSDVSSYLEEQAAKEFIAWLVKGGGGGGGSGGGGSGGGGSA[sequence of human IgG4 Fc with S228P F234A L235A (EU numbers) not given]
B5: desH-GLP1-hFc (Fc fusion)
chain: AEGTFTSDVSSYLEGQAAKEFIAWLVKGRGGGGGSGGGGSGGGGS[sequence of human IgG1 Fc not given]

Biological target: human GLP1 receptor (human, UniProt P43220 24-463)
Assay: cell-based or functional assay

Binder	EC50 (luciferase assay, cAMP-responsive Cre-Luc reporter cells) [nM]
B1	0.147
B2	120
B3	135
B4	0.059
B5	2560
